For experiment [1], the target named is FLAG-tagged AKT1 (UniProt P31749). Description: co-IP; AKT1-FLAG precipitated with anti-FLAG M2 affinity gel, Western blot for HA (MAPK6-HA); lysates of transfected HEK293T or MAPK4-KO HCT116 cells, 48 hours after transfection. (In general: A western blot detects proteins with antibodies after separation by electrophoresis.)
Experiment [2] has as its target FLAG/His-tagged MAPK6 fragment 1-439 (human) (UniProt Q16659). Description: co-IP; FH-tagged MAPK6 (wild type, mutants, fragments) precipitated with anti-FLAG M2 affinity gel, Western blot for AKT (AKT1-His); lysates of transfected HEK293T cells, 48 hours after transfection.
The target in experiment [3] is FLAG/His-tagged MAPK6 fragment 1-389 (human) (UniProt Q16659). The experiment is described as above.
For experiment [4], the target named is FLAG/His-tagged MAPK6 kinase domain fragment 1-316 (human) (UniProt Q16659). The description is as above.
The target of experiment [5] is FLAG/His-tagged MAPK6 fragment 1-379 (human) (UniProt Q16659). The experiment is described as above.
In experiment [6] the target is FLAG/His-tagged MAPK6 mutant with EEDRQE mutated to AAARAA (D/E/Q-5A) (human) (UniProt Q16659). The experiment is described as above.
Experiment [7] deals with full-length MAPK6 with DIDE mutated to KIKK (D/E3K), FLAG/His-tagged (human) (UniProt Q16659). The experiment is described as above.
Experiment [8] deals with full-length MAPK6 with 363 to 379 deletion, FLAG-tagged (human) (UniProt Q16659). Described as above.
Experiment [9] has as its target FLAG/His-tagged MAPK6 fragment 1-384 (human) (UniProt Q16659). The description is as above.
The target of experiment [10] is FLAG/His-tagged S189A mutant MAPK6 (human) (UniProt Q16659). The description is as above.
Experiment [11] addresses FLAG/His-tagged MAPK6 fragment 1-408 (human) (UniProt Q16659). The description is as above.
Experiment [12] deals with FLAG/His-tagged MAPK6 fragment 317-721 (C34 and C-terminal tail) (human) (UniProt Q16659). Described as above.
Experiment [13] concerns the target FLAG/His-tagged MAPK6 fragment 1-480 (human) (UniProt Q16659). The experiment is described as above.
The target in experiment [14] is FLAG/His (FH)-tagged MAPK6, wild type, full length (human) (UniProt Q16659). The description is as above.
Experiment [15] deals with FLAG/His-tagged MAPK6 C-terminal tail fragment 481-721 (human) (UniProt Q16659). The experiment is described as above.
The target of experiment [16] is FLAG/His-tagged MAPK6 C34 region fragment 317-480 (human) (UniProt Q16659). The description is as above.
For experiment [17], the target named is FLAG/His-tagged MAPK6 1-384 with DIDE mutated to KIKK (D/E3K) (human) (UniProt Q16659). The experiment is described as above.
For experiment [18], the target named is FLAG/His-tagged MAPK6 fragment 1-373 (human) (UniProt Q16659). The description is as above.
Experiment [19] addresses FLAG/His-tagged MAPK6 fragment 1-362 (human) (UniProt Q16659). Described as above.
Experiment [20] has as its target FLAG-tagged AKT1 (in MAPK4-KO HCT116 cells) (UniProt P31749). Description: co-IP; AKT1-FLAG precipitated with anti-FLAG M2 affinity gel, Western blot for HA (MAPK6-HA); lysates of transfected HEK293T or MAPK4-KO HCT116 cells, 48 hours after transfection.

Chains of the proteins cited; added tags and fusions are not shown. Lines headed by an entry give the natural chain unless they say otherwise; changes in a name come on top. A line that says so, or that is headed by a name, gives the form on record, which may keep a tag or linker. Residues count along the entry.
UniProt P31749: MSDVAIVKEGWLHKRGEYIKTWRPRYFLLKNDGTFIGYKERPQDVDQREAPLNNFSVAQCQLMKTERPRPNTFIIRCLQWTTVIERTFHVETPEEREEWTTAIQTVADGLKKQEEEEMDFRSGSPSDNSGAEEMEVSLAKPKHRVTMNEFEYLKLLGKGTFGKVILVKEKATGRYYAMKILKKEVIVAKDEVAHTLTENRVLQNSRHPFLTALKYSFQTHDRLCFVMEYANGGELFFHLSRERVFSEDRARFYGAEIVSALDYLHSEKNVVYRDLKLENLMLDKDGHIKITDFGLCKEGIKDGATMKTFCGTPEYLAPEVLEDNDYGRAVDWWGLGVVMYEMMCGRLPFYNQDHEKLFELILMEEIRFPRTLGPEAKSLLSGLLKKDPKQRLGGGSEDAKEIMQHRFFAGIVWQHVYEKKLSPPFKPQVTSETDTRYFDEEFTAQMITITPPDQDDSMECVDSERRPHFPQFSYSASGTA
UniProt Q16659: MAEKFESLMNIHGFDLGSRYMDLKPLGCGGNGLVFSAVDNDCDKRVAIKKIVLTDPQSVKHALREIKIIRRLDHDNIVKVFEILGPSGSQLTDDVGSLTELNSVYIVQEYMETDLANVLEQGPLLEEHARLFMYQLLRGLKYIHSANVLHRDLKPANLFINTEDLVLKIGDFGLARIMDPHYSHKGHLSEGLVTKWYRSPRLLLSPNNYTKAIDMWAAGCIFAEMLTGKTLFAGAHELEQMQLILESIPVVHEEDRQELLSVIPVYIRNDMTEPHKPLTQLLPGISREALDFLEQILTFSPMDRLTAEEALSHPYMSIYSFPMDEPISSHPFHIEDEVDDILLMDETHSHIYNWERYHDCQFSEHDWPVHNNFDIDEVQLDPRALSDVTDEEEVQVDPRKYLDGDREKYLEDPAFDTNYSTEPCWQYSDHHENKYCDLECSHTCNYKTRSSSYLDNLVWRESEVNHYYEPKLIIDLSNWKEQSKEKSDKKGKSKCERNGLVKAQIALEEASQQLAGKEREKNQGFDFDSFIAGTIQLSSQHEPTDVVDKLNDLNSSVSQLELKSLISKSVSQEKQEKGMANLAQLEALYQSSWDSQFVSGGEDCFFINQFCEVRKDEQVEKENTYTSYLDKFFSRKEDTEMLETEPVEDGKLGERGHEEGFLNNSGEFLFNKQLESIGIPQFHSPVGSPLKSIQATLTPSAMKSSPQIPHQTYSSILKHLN
FLAG/His-tagged MAPK6 fragment 1-480: residues 1-480 of Q16659
FLAG/His-tagged MAPK6 fragment 1-439: residues 1-439 of Q16659
FLAG/His-tagged MAPK6 fragment 1-408: residues 1-408 of Q16659
FLAG/His-tagged MAPK6 fragment 1-389: residues 1-389 of Q16659
FLAG/His-tagged MAPK6 fragment 1-384: residues 1-384 of Q16659
FLAG/His-tagged MAPK6 fragment 1-379: residues 1-379 of Q16659
FLAG/His-tagged MAPK6 fragment 1-373: residues 1-373 of Q16659
FLAG/His-tagged MAPK6 fragment 1-362: residues 1-362 of Q16659
FLAG/His-tagged MAPK6 kinase domain fragment 1-316: residues 1-316 of Q16659
FLAG/His-tagged MAPK6 fragment 317-721 (C34 and C-terminal tail): residues 317-721 of Q16659
FLAG/His-tagged MAPK6 C34 region fragment 317-480: residues 317-480 of Q16659
FLAG/His-tagged MAPK6 C-terminal tail fragment 481-721: residues 481-721 of Q16659
FLAG/His-tagged MAPK6 mutant with EEDRQE mutated to AAARAA (D/E/Q-5A) (Q16659, form named): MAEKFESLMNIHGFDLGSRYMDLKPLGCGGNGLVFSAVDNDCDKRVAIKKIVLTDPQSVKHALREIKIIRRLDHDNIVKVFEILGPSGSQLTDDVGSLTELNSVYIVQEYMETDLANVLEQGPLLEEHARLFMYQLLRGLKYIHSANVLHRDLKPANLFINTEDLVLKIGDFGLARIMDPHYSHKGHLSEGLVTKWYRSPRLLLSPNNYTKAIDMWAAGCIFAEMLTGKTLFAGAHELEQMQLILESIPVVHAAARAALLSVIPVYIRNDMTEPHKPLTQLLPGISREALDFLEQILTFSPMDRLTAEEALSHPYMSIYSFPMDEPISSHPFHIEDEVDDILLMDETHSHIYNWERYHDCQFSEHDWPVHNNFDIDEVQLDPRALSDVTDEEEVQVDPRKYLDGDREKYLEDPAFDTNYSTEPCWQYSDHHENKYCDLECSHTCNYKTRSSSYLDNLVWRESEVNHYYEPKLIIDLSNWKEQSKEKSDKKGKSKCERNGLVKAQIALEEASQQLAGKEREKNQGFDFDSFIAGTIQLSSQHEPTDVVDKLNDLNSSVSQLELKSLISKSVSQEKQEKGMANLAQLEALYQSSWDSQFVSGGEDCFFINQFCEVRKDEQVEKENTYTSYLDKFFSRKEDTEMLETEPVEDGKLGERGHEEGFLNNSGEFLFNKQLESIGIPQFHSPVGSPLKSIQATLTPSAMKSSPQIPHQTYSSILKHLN
full-length MAPK6 with DIDE mutated to KIKK (D/E3K), FLAG/His-tagged (Q16659, form named): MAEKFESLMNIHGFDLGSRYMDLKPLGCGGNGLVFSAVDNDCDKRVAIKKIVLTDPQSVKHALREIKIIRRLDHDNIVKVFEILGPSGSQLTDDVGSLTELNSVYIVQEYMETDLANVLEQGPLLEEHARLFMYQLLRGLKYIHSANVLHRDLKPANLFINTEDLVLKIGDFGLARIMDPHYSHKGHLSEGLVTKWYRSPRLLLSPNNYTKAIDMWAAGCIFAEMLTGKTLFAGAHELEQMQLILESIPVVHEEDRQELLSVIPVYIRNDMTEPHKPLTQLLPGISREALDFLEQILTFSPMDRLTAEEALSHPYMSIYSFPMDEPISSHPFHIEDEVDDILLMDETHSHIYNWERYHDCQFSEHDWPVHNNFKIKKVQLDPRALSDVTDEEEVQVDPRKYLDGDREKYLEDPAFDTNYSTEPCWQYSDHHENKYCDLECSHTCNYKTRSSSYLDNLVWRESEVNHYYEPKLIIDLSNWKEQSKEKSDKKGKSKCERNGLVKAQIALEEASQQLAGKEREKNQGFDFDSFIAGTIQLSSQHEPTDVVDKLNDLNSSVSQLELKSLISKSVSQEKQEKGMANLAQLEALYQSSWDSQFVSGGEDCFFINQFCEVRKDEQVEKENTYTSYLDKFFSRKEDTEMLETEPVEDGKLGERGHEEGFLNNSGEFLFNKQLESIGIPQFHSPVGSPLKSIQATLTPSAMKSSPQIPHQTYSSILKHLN
full-length MAPK6 with 363 to 379 deletion, FLAG-tagged (Q16659, form named): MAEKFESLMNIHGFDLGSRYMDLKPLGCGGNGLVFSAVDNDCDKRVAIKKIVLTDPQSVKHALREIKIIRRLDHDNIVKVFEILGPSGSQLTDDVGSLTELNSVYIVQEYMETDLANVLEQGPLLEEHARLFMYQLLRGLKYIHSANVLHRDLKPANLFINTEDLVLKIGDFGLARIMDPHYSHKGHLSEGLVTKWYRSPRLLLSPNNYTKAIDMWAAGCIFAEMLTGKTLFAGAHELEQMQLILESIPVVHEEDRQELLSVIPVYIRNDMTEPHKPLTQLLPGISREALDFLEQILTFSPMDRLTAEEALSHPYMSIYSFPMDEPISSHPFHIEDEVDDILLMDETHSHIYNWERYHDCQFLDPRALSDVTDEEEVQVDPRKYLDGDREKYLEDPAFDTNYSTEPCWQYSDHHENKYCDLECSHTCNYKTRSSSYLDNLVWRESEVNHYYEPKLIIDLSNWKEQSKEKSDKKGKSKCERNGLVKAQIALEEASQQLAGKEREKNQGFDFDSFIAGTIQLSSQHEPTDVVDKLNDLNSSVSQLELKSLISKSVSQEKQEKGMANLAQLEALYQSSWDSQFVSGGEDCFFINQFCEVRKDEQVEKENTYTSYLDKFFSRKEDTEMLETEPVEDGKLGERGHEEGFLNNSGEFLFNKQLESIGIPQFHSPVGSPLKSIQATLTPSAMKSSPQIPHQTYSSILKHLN
FLAG/His-tagged MAPK6 1-384 with DIDE mutated to KIKK (D/E3K) (Q16659, form named): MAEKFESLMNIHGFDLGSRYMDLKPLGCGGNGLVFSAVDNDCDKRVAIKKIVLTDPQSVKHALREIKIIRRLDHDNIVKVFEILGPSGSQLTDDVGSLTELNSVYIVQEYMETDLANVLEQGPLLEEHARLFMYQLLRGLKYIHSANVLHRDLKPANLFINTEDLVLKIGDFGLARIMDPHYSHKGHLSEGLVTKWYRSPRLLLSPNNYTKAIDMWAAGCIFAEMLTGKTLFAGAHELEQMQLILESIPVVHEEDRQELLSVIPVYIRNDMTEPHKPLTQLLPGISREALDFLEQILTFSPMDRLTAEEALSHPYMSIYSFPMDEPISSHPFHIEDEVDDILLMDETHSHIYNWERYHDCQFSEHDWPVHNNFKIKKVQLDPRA

No constants are given. Whether binding was seen depends on the method and setting. In cells and extracts the contact can be indirect. Some binding calls cover weakened binding; strength is not graded here.

In the case of “HA-tagged MAPK6 (from UniProt Q16659 1-721) (enzyme)”, in experiment [1], the binding entry is “binds”.

In the case of “His-tagged AKT1 (from UniProt P31749 1-480) (enzyme)”, the binding entry is given as “binds” in experiment [2]; “binds” in [3]; “no binding” in [4]; “binds” in experiment [5]; “binds” in experiment [6]; “binds” in experiment [7]. In addition, the binding entry in [8], in [9], in experiment [10], in [11], in experiment [12] and in experiment [13] was “binds” throughout. In addition, the binding entry in [14] is on record as “binds”; in [15], “binds”; in experiment [16], “binds”; in experiment [17], “no binding”; in experiment [18], “no binding”; in experiment [19] it was “no binding”.

In the case of “HA-tagged MAPK6 (in MAPK4-KO HCT116 cells) (from UniProt Q16659 1-721) (enzyme)”, the binding result in experiment [20] is listed as “binds”.

Values taken from paper PMC8589317.
